# The supplement of paper PMC8728848
# This is one part of the list.
# B1: Dectin-1 (Mus musculus), Q6QLQ4 (protein)
# chain: GHNSGRNPEEKDNFLSRNKENHKPTESSLDEKVAPSKASQTTGGFSQPCLPNWIMHGKSCYLFSFSGNSWYGSKRHCSQLGAHLLKIDNSKEFEFIESQTSSHRINAFWIGLSRNQSEGPWFWEDGSAFFPNSFQVRNTAPQESLLHNCVWIHGSEVYNQICNTSSYSICEKEL
# Legend:
# Experiment in all cases: glycan array binding signal (z-score within array); higher = stronger binding
# Conditions in all cases: glycan notation: IUPAC condensed, linker removed
# [1] = target: Neu5Ac(a2-6)Gal(b1-3)GlcNAc(b1-3)[Fuc(a1-3)[Gal(b1-4)]GlcNAc(b1-6)]Gal(b1-4)Glc
# Outline: (§1)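 Glycan array binding is given as a within-array Z-score, which can be read as non-binding when negative. The arrays, 3228 of them, came from the Consortium for Functional Glycomics database and were retained only where the protein sequence was available. Z-scores were averaged across arrays of the same protein sequence at different concentrations or buffers and across linkers.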
# [2] = target: Neu5Ac(a2-6)Gal(b1-3)GlcNAc(b1-3)[Gal(b1-4)GlcNAc(b1-6)]Gal(b1-4)Glc
# Outline: as §1
# [3] = target: Neu5Ac(a2-6)Gal(b1-4)Glc
# Outline: as §1
# [4] = target: Neu5Ac(a2-6)Gal(b1-4)GlcNAc
# Outline: as §1
# [5] = target: Neu5Ac(a2-6)Gal(b1-4)GlcNAc(b1-2)Man(a1-3)[Neu5Ac(a2-6)Gal(b1-4)GlcNAc(b1-2)Man(a1-6)]Man(b1-4)GlcNAc(b1-4)GlcNAc
# Outline: as §1
# [6] = target: Neu5Ac(a2-6)Gal(b1-4)GlcNAc(b1-2)Man(a1-3)[Neu5Gc(a2-6)Gal(b1-4)GlcNAc(b1-2)Man(a1-6)]Man(b1-4)GlcNAc(b1-4)GlcNAc
# Outline: as §1
# [7] = target: Neu5Ac(a2-6)Gal(b1-4)GlcNAc(b1-2)[Neu5Ac(a2-3)Gal(b1-4)GlcNAc(b1-4)]Man(a1-3)[Neu5Ac(a2-3)Gal(b1-4)GlcNAc(b1-2)Man(a1-6)]Man(b1-4)GlcNAc(b1-4)GlcNAc
# Outline: as §1
# [8] = target: Neu5Ac(a2-6)Gal(b1-4)GlcNAc(b1-3)Gal(b1-4)Glc
# Outline: as §1
# [9] = target: Neu5Ac(a2-6)Gal(b1-4)GlcNAc(b1-3)Gal(b1-4)[Fuc(a1-3)]Glc
# Outline: as §1
# [10] = target: Neu5Ac(a2-6)Gal(b1-4)GlcNAc(b1-3)[Neu5Ac(a2-6)Gal(b1-4)GlcNAc(b1-6)]Gal(b1-4)Glc
# Outline: as §1
# [11] = target: Neu5Ac(a2-6)Gal(b1-4)GlcNAc(b1-6)[Gal(b1-3)GlcNAc(b1-3)]Gal(b1-4)Glc
# Outline: as §1
# [12] = target: Neu5Ac(a2-6)Gal(b1-4)[Fuc(a1-3)]GlcNAc(b1-3)Gal(b1-4)Glc
# Outline: as §1
# [13] = target: Neu5Ac(a2-8)Neu5Ac
# Outline: as §1
# [14] = target: Neu5Ac(a2-8)Neu5Ac(a2-3)Gal(b1-3)GalNAc(b1-4)[Neu5Ac(a2-3)]Gal(b1-4)Glc
# Outline: as §1
# [15] = target: Neu5Ac(a2-8)Neu5Ac(a2-3)Gal(b1-3)GalNAc(b1-4)[Neu5Ac(a2-8)Neu5Ac(a2-3)]Gal(b1-4)Glc
# Outline: as §1
# [16] = target: Neu5Ac(a2-8)Neu5Ac(a2-3)Gal(b1-4)Glc
# Outline: as §1
# [17] = target: Neu5Ac(a2-8)Neu5Ac(a2-3)[Gal(b1-3)GalNAc(b1-4)]Gal(b1-4)Glc
# Outline: as §1
# [18] = target: Neu5Ac(a2-8)Neu5Ac(a2-3)[GalNAc(b1-4)]Gal(b1-4)Glc
# Outline: as §1
# [19] = target: Neu5Ac(a2-8)Neu5Ac(a2-8)Neu5Ac
# Outline: as §1
# [20] = target: Neu5Ac(a2-8)Neu5Ac(a2-8)Neu5Ac(a2-8)Neu5Ac
# Outline: as §1
# [21] = target: Neu5Ac(a2-8)Neu5Ac(a2-8)Neu5Ac(a2-8)Neu5Ac(a2-8)Neu5Ac
# Outline: as §1
# [22] = target: Neu5Ac(a2-8)Neu5Ac(a2-8)Neu5Ac(a2-8)Neu5Ac(a2-8)Neu5Ac(a2-8)Neu5Ac
# Outline: as §1
# [23] = target: Neu5Ac(a2-8)Neu5Ac(a2-8)Neu5Ac(a2-8)Neu5Ac(a2-8)Neu5Ac(a2-8)Neu5Ac(a2-8)Neu5Ac
# Outline: as §1
# [24] = target: Neu5Ac(a2-8)Neu5Ac(a2-8)Neu5Ac(a2-8)Neu5Ac(a2-8)Neu5Ac(a2-8)Neu5Ac(a2-8)Neu5Ac(a2-8)Neu5Ac
# Outline: as §1
# [25] = target: Neu5Ac(a2-8)Neu5Ac(a2-8)Neu5Ac(a2-8)Neu5Ac(a2-8)Neu5Ac(a2-8)Neu5Ac(a2-8)Neu5Ac(a2-8)Neu5Ac(a2-8)Neu5Ac
# Outline: as §1
# [26] = target: Neu5Ac(a2-8)Neu5Ac(a2-8)Neu5Ac(a2-8)Neu5Ac(a2-8)Neu5Ac(a2-8)Neu5Ac(a2-8)Neu5Ac(a2-8)Neu5Ac(a2-8)Neu5Ac(a2-8)Neu5Ac
# Outline: as §1
# [27] = target: Neu5Ac(a2-8)Neu5Ac(a2-8)Neu5Ac(a2-8)Neu5Ac(a2-8)Neu5Ac(a2-8)Neu5Ac(a2-8)Neu5Ac(a2-8)Neu5Ac(a2-8)Neu5Ac(a2-8)Neu5Ac(a2-8)Neu5Ac
# Outline: as §1
# [28] = target: Neu5Ac(b2-3)Gal(b1-4)Glc
# Outline: as §1
# [29] = target: Neu5Ac(b2-6)Gal(b1-4)Glc
# Outline: as §1
# [30] = target: Neu5Ac9Ac(a2-6)Gal(b1-4)GlcNAc
# Outline: as §1
# [31] = target: Neu5Gc(a2-3)Gal(b1-4)Glc
# Outline: as §1
# [32] = target: Neu5Gc(a2-3)[GalNAc(b1-4)]Gal
# Outline: as §1
# [33] = target: Neu5Gc(a2-6)Gal(b1-4)GlcNAc(b1-2)Man(a1-3)[Neu5Gc(a2-6)Gal(b1-4)GlcNAc(b1-2)Man(a1-6)]Man(b1-4)GlcNAc(b1-4)GlcNAc
# Outline: as §1
# [34] = target: Xyl(a1-6)Glc(b1-4)[Xyl(a1-6)]Glc(b1-4)[Xyl(a1-6)]Glc(b1-4)Glc
# Outline: as §1
# [35] = target: Xyl(b1-2)[Man(a1-3)][Man(a1-6)]Man(b1-4)GlcNAc(b1-4)GlcNAc
# Outline: as §1
# [36] = target: Xyl(b1-2)[Man(a1-3)][Man(a1-6)]Man(b1-4)GlcNAc(b1-4)[Fuc(a1-3)]GlcNAc
# Outline: as §1
# [37] = target: Xyl(b1-4)Xyl(b1-4)Xyl(b1-4)Xyl(b1-4)Xyl
# Outline: as §1
# [38] = target: Xyl(b1-4)Xyl(b1-4)Xyl(b1-4)Xyl(b1-4)Xyl(b1-4)Xyl
# Outline: as §1
binder,measurement,setting,value
B1,glycan array binding signal (z-score),[1],-0.091
same,glycan array binding signal (z-score),[2],-0.08
same,glycan array binding signal (z-score),[3],-0.079
same,glycan array binding signal (z-score),[4],-0.091
same,glycan array binding signal (z-score),[5],-0.091
same,glycan array binding signal (z-score),[6],-0.091
same,glycan array binding signal (z-score),[7],-0.082
same,glycan array binding signal (z-score),[8],-0.08
same,glycan array binding signal (z-score),[9],-0.091
same,glycan array binding signal (z-score),[10],-0.091
same,glycan array binding signal (z-score),[11],-0.08
same,glycan array binding signal (z-score),[12],-0.08
same,glycan array binding signal (z-score),[13],-0.028
same,glycan array binding signal (z-score),[14],-0.091
same,glycan array binding signal (z-score),[15],-0.091
same,glycan array binding signal (z-score),[16],-0.091
same,glycan array binding signal (z-score),[17],-0.091
same,glycan array binding signal (z-score),[18],-0.091
same,glycan array binding signal (z-score),[19],-0.038
same,glycan array binding signal (z-score),[20],-0.029
same,glycan array binding signal (z-score),[21],-0.085
same,glycan array binding signal (z-score),[22],-0.091
same,glycan array binding signal (z-score),[23],-0.075
same,glycan array binding signal (z-score),[24],-0.083
same,glycan array binding signal (z-score),[25],-0.046
same,glycan array binding signal (z-score),[26],-0.067
same,glycan array binding signal (z-score),[27],-0.005
same,glycan array binding signal (z-score),[28],-0.091
same,glycan array binding signal (z-score),[29],-0.091
same,glycan array binding signal (z-score),[30],-0.067
same,glycan array binding signal (z-score),[31],-0.091
same,glycan array binding signal (z-score),[32],-0.011
same,glycan array binding signal (z-score),[33],-0.091
same,glycan array binding signal (z-score),[34],-0.053
same,glycan array binding signal (z-score),[35],-0.091
same,glycan array binding signal (z-score),[36],-0.089
same,glycan array binding signal (z-score),[37],-0.082
same,glycan array binding signal (z-score),[38],-0.135
